Laboratory results: the supplement of paper PMC3334620
The full ranking holds about 33,000 sequences; the median of “E-score (-0.5 to 0.5)” is about -0.032, and the highest 2% start at about 0.36. The list shows a part of the results.

Molecular target: T1, Sko1 (UniProt Q02100)
T1 sequence: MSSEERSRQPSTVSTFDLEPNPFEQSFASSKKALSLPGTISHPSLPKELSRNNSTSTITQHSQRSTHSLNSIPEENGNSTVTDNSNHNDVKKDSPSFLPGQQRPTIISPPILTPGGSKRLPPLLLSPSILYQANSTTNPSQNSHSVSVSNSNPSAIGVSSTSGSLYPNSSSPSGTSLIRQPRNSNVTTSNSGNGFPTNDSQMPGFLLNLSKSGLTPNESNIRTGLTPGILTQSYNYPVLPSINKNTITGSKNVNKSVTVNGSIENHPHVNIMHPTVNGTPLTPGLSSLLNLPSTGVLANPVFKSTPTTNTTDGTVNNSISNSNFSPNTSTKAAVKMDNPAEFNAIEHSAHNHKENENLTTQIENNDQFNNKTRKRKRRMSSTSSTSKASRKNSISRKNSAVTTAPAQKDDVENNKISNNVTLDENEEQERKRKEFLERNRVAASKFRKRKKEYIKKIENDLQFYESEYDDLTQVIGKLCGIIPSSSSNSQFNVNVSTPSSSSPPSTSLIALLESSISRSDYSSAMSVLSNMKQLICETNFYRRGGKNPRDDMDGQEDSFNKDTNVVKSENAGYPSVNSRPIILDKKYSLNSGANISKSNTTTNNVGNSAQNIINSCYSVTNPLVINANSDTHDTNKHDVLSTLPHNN
Test: PBM E-score (8-mer binding enrichment) (E-score (-0.5 to 0.5)); higher = stronger / more preferred TF binding; most listed sequences are background and not binding sites
Conditions: protein concentration: 200 nM; construct: GST-full length
Protocol: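 Universal 'all 10-mer' protein binding microarrays (Agilent AMADID 015681) probed with GST-tagged S. cerevisiae TFs (full-length or DBD) made by in vitro transcription/translation (PURExpress), about 100-200 nM. Bound TF was detected with fluorescent anti-GST. Each ungapped 8-mer (which stands for itself and its reverse complement) is scored by the PBM enrichment score (E-score), a modified Wilcoxon-Mann-Whitney statistic from -0.5 to +0.5, computed with the Universal PBM Analysis Suite. Scale: above 0.35 generally sequence-specific binding.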

Point of comparison: CCAGAAAA, “PBM E-score” value 0.111. Against it:
- CCGATAGA — lower, -0.274
- CAACAACG — higher, 0.138
- CCTTTAGA — lower, -0.183
- CAGTAAAA — higher, 0.265
- ACGGTATC — lower, 0.0965
- ATCGTGAA — lower, -0.0642
- CTAATGAC — higher, 0.299
- CCGTGGTA — lower, -0.172
- AACGGCCC — lower, -0.397
- CATCATAA — higher, 0.299
- GCAATAGC — lower, 0.0541
- CGCAATGA — higher, 0.277
- ATCAGTAA — higher, 0.187
- GGTCGACC — lower, -0.143
- CTTCTTCA — lower, -0.0914
- CATGCCCG — lower, -0.0373
- GCAAAATA — higher, 0.139
- TAAGAATA — higher, 0.153
- ATGCGTCG — lower, 0.0928
- ACAGAGTG — lower, 0.0194
- AGAATAAA — higher, 0.178
- AATGATAT — higher, 0.285
- GTGCCTAA — lower, -0.052
- GACGGCTA — lower, -0.0929
- AGGGACAT — lower, -0.152
- CTTACTGA — lower, 0.0116
- CGTTATGC — higher, 0.262
- ACTTTGTA — higher, 0.189
- CGGCCTAC — lower, -0.0111
- ATCTACAC — higher, 0.173
- CCCGATAG — lower, -0.304
- CAATTCCA — lower, -0.201
- CCCCTACC — lower, -0.0799
- ACAAAAAG — higher, 0.147
- ATGCTGAC — higher, 0.185
- ACAAGCAT — lower, -0.0431
- GAAGTAGA — lower, 0.0821
- AGCCACAG — lower, -0.248
- CGATGCTC — lower, -0.247
- TAAACGGA — lower, -0.0437
- TCACTGCA — higher, 0.175
- CGATACGA — lower, 0.102
- ACTTTTAT — higher, 0.162
- ATCATTTG — higher, 0.175
- GGGTAATA — lower, 0.0779
- AATAAGAT — higher, 0.249
- TGGGTACA — lower, -0.0867
- TAGCGTGA — lower, 0.0886
- CGGCTCGC — lower, 0.0398
- CATTGAAG — lower, -0.167
- TTAGCGAA — higher, 0.172
- CAGCAAAC — lower, -0.039
- GATATGTA — higher, 0.137
- CCCTACTA — lower, -0.19
- CCGACCAC — lower, -0.182
- AAATTACT — higher, 0.196
- CTGAATTA — higher, 0.17
- CTGCTAGC — lower, -0.357
- AGCGCAAT — lower, 0.0809
- AGATCTTG — lower, -0.175
- AACTCTGA — lower, 0.0952
- ACTAGGAC — lower, -0.174
- GAAAGTGA — higher, 0.215
- AACCAGAA — lower, 0.0649
- CTGCACTA — lower, 0.0142
- AGGCATAA — lower, -0.198
- CAATATAG — lower, -0.00127
- CAGAAAGC — higher, 0.129
- GGTTTAAA — higher, 0.138
- ACGTCGAA — higher, 0.292
- AAGTCCGT — lower, -0.183
- GTGCACAA — lower, -0.0832
- ATGGTCGG — lower, -0.186
- AGTACCGC — lower, -0.0783
- ATTGTCTG — lower, 0.022
- CTGGGGAA — lower, -0.214
- TAATTGTA — higher, 0.208
- AGAACCTC — lower, -0.277
- CCGTAGCG — lower, -0.239
- ATCATCAC — higher, 0.334
- ACACCGTA — lower, -0.0828
- ACTTCGCA — higher, 0.192
- CAGGTAGC — lower, -0.301
- CCTCATCC — lower, -0.292
- TCAAGTGA — lower, 0.087
- CTACGGGC — lower, -0.281
- CAATGCGC — higher, 0.159
- TGGGAAAA — lower, 0.00787
- TCTCAGAA — lower, 0.0658
- AAGCATTA — lower, 0.0399
- AATATTGA — higher, 0.181
- CCCTACCC — lower, -0.0678
- GACGTGCA — higher, 0.389
- AGGCCTCG — lower, -0.362
- AATATTCG — higher, 0.243
- AGATGACT — lower, -0.0299
- GCAAACGC — lower, 0.088
- ATGCTCCA — lower, -0.253
- GAATTCGC — lower, -0.0681
- AAAAGAGG — lower, -0.184
- CGACGCCG — lower, -0.0938
- GACGTATC — higher, 0.422
- CAATCTCG — lower, -0.137
- AAGGACGA — lower, -0.0948
- ACCGACAC — lower, -0.108
- ACCGGGCC — lower, -0.157
- AGGTATAC — lower, 0.11
- GCTTTGAC — higher, 0.113
